From paper PMC4336329 (PLoS ONE, 2015)
About 14,000 (4.5%) of roughly 310,000 compounds showed an effect of 50% or more. The effect is printed as a negative number. This is one part of the list.

Biological target: human ether-à-go-go-related gene (hERG) potassium channel (human, UniProt Q12809)
Experiment: primary screen, population patch clamp on CHO cells stably expressing hERG
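Also: peak tail current of the secondary pulse compared with the same well before compound.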

Chain of human ether-à-go-go-related gene (hERG) potassium channel (Q12809 whole entry, looked up): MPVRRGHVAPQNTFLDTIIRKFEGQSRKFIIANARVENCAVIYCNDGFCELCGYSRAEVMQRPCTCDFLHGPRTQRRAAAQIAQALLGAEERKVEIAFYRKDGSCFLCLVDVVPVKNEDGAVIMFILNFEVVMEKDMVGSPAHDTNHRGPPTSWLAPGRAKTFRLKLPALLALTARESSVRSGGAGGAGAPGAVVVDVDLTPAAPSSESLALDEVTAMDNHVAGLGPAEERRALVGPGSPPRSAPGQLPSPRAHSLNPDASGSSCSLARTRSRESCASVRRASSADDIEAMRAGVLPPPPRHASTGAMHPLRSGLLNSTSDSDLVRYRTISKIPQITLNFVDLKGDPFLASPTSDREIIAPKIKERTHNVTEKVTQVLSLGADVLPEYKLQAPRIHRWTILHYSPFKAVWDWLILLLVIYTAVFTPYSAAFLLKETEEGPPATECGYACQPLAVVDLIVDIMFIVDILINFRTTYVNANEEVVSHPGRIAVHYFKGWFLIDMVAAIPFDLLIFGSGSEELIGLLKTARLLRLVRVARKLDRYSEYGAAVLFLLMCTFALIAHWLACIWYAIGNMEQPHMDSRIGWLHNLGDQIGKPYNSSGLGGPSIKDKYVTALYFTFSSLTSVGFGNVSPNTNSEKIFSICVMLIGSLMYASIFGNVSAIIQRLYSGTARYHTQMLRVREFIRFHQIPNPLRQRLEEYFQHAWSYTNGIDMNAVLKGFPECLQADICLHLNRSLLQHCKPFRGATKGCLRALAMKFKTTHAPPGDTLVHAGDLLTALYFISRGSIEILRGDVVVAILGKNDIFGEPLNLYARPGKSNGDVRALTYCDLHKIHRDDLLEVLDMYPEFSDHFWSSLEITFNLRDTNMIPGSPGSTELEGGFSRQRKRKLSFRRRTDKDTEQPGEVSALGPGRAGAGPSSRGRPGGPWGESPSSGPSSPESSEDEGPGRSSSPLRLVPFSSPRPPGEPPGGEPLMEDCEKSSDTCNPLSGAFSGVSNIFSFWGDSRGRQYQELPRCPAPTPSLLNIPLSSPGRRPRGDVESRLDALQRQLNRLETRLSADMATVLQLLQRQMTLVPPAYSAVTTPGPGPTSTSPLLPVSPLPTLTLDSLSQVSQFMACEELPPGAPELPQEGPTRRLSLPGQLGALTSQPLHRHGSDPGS

Structure (SMILES) | hERG current change (%, negative = inhibition) at 10uM [%]
CCCCN(Cc1cc2cc(OC)ccc2[nH]c1=O)C(=O)c1ccccn1 | -25.2
O=C(CN(c1ccc(F)cc1)S(=O)(=O)c1ccccc1)NCCSC1CCCCC1 | -9.29
COc1cc(OC)cc(C(=O)Nc2ccccc2-c2nnn(CC(=O)Nc3cc(C)on3)n2)c1 | 2.46
O=C(CNS(=O)(=O)c1ccccc1)Nc1ccc(C(F)(F)F)cc1 | 9.32
COc1cc(CC(=O)OCn2nnc3ccccc3c2=O)cc(OC)c1OC | 18.1
COCCN1CCN(C(=O)C2CCC(=O)N(Cc3cccc(C(F)(F)F)c3)C2)CC1 (centres unmarked) | 2.95
COc1ccc(Cl)cc1/C=C1/C(=O)ON=C1C | 14.4
COc1ccc(CNC(=O)c2csc(Cc3ccc(OC)cc3)n2)cc1 | -13
COc1ccc(N(C)S(=O)(=O)c2cccc(C(=O)NC3CCC(C)CC3)c2)cc1 (centres unmarked) | -14.2
Cc1cc(=O)oc2cc(NC(=O)C(CCCN=C(N)N)NC(=O)OCc3ccccc3)ccc12 (centres unmarked) | 18.1
CN(CC(=O)Nc1ccc(F)cc1)C(=O)COC(=O)/C=C/c1ccccc1[N+](=O)[O-] | -46
COc1cccc(N(CC(=O)NC2CC3CCC2C3)S(=O)(=O)c2ccccc2)c1 (centres unmarked) | -23.2
O=C(Cc1cccs1)N(c1ccc(Br)cc1)C1C=CS(=O)(=O)C1 (centres unmarked) | 0.356
C=CCn1cc(/C=C2\SC(N3CCOCC3)=NC2=O)c2ccccc21 | -5.35
COc1ccc(C)cc1NC(=O)c1cc2ccccc2cc1OCC(=O)NCc1ccco1 | 0.0844
COC(=O)c1oc2ccc(Br)cc2c1NC(=O)CCN1CCOCC1 | -17.7
Cc1nc(CS(=O)(=O)c2ccccc2)cc(Sc2ccc(Cl)cc2Cl)n1 | -10.1
Cc1cc(/C=N/NC(=O)c2cccs2)c(C)n1-c1cnccn1 | 6.47
COCCCN1CC(=O)N2C(c3cccc(OC)c3OC)c3[nH]c4ccccc4c3C[C@H]2C1=O (some centres unmarked) | -25.7

Structure (SMILES) | hERG current change (%, negative = inhibition) at 10uM [%]
COc1ccc([N+](=O)[O-])cc1N(CC(=O)N1CCN(Cc2ccccc2)CC1)S(C)(=O)=O | 5.94
CCOC(=O)N1CCC(N(CCCOC)C(=O)Nc2cccc(OC)c2)CC1 | 0.292
CCc1ccc(C(=O)O)cc1 | 14.8
Cc1cc(Cl)ccc1-n1c(-c2cccnc2)n[nH]c1=S | 14.8
Cc1ccc(NC(=O)COc2ccc(/C(N)=N/O)cc2)cc1C | -14.1
CS(=O)(=O)N(CC(=O)Nc1cccc(Cl)c1)c1ccccc1Cl | -12.3
O=C(NCCCN1CCCCCC1)c1ccc2c(c1)NC(=O)C(N1CCOCC1)S2 (centres unmarked) | 6.27
COc1cccc(CC(=O)Nc2cccc3ccccc23)c1 | -39.5
CCCCCSc1nc2c(c(=O)[nH]c(=O)n2C)n1C(C)C | 2.38
CCNc1ccc(C(=O)NN=C2CCCC2)cc1[N+](=O)[O-] | -37.9
CN=c1scc(-c2cccs2)n1/N=C/c1ccccc1O | 11.1
COc1ccc(OCc2cc(C(=O)N(C)Cc3nccn3C)no2)c2ccccc12 | -23.4
O=C(Cc1cccc(C(F)(F)F)c1)Nc1cccc(S(=O)(=O)N2CCCC2)c1 | 22.7
NC(=O)C1(N2CCCCC2)CCN(Cc2nc(-c3cccs3)no2)CC1 | 4.28
Cc1ccc(-n2c(=S)sc3c(=O)n(-c4ccc(F)cc4)c(SCC(=O)O)nc32)cc1C | 18.6
Cc1ccc(/C=N/n2c(C)nc3ccccc3c2=O)s1 | -3.52
O=C(c1n[nH]c(=O)c2ccccc12)N1CCN(C2c3ccccc3-c3ccccc32)CC1 | -2.33
CCN(CC)CCCn1c2c(c(SCC(=O)Nc3nc(C)cs3)nc1=O)CCC2 | -42.6
CCc1ccc(-c2n[nH]c(=O)c3ccccc23)cc1 | 6.01

Structure (SMILES) | hERG current change (%, negative = inhibition) at 10uM [%]
CCOC(=O)c1cc(NC(=O)NC2CCCCC2)c(C)nc1C | 17.3
O=C(CSc1ccc2c(c1)OCCO2)Nc1ccc(Br)cn1 | 17
COc1ccc(C2=Nn3c(nnc3-c3ccccn3)SC2)cc1 | -34.3
Cc1ccccc1S(=O)(=O)N(CC(O)CN1CCCCC1)c1ccccc1 (centres unmarked) | -71.7
Nc1nc(N2CCCCC2)nc(N(c2ccccc2)c2ccccc2)n1 | 17.1
COc1ccccc1-c1noc(-c2ccncc2)n1 | 6.52
Cc1onc(-c2ccccc2Cl)c1C(=O)NC(=S)Nc1ccc(C(C)(C)C)cc1 | 11.6
CCOc1ccc(NC(=O)CSC2=NN3CCCC(=O)N=C3S2)cc1 | 21.5
CC(C)CN(CCCNC(=O)CC1Oc2ccccc2NC1=O)CC(C)C (centres unmarked) | -14
COc1ccc(-n2nnc3c(=O)n(Cc4ccccc4C)cnc32)cc1 | -2.1
Cc1ccc(C(=O)N/N=C\c2ccc([N+](=O)[O-])o2)cn1 | -11.1
Cc1cccc(-c2nsc(SCC(=O)Nc3nccs3)n2)c1 | 24.8
O=C(O)c1cc2n(n1)C(C(F)(F)F)CC(c1ccco1)N2 (centres unmarked) | 22.2
CCc1cccc(NC(=O)CSc2nnc(Cc3ccc(OC)cc3)c(=O)[nH]2)c1 | 4
CCOCc1nnc(NC(=O)c2cc(OC)c(OC)c(OC)c2)s1 | 7.16
Cn1nc(C(=O)OCC(=O)c2ccc(Br)cc2)c2ccccc2c1=O | 8.6
COc1ccccc1N1C(=O)N(CC(=O)C(C)(C)C)c2ccccc2S1(=O)=O | 15.1
COc1ccc(C2/C=C\CN(C(=O)Oc3ccc(C(F)(F)F)cc3)CC(=O)N2Cc2ccc(F)cc2)cc1 (centres unmarked) | -9.5
